Test results taken from the supplement of paper PMC8728848.
The list shows a part of the results.

Columns and labels:
Test in all cases: glycan array binding signal (z-score within array); higher = stronger binding
Details in all cases: glycan notation: IUPAC condensed, linker removed
Fuc(a1-2)Gal = target: Fuc(a1-2)Gal
How it was run: (§1)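 Arrays were curated from the Consortium for Functional Glycomics database, 3228 in total, and kept only where the protein sequence was available. Binding is expressed as a within-array Z-score. This score was averaged across arrays of the same protein sequence at different concentrations or buffers and across linkers, and negative values can be read as non-binding.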

Fuc(a1-2)Gal(b1-3)GalNAc = target: Fuc(a1-2)Gal(b1-3)GalNAc
How it was run: as §1

[1] = target: Fuc(a1-2)Gal(b1-3)GalNAc(a1-3)[Fuc(a1-2)]Gal(b1-4)Glc
How it was run: as §1

[2] = target: Fuc(a1-2)Gal(b1-3)GalNAc(a1-3)[Fuc(a1-2)]Gal(b1-4)GlcNAc
How it was run: as §1

[3] = target: Fuc(a1-2)Gal(b1-3)GalNAc(b1-3)Gal
How it was run: as §1

[4] = target: Fuc(a1-2)Gal(b1-3)GalNAc(b1-3)Gal(a1-4)Gal(b1-4)Glc
How it was run: as §1

[5] = target: Fuc(a1-2)Gal(b1-3)GalNAc(b1-4)[Neu5Ac(a2-3)]Gal(b1-4)Glc
How it was run: as §1

Fuc(a1-2)Gal(b1-3)GlcNAc = target: Fuc(a1-2)Gal(b1-3)GlcNAc
How it was run: as §1

[6] = target: Fuc(a1-2)Gal(b1-3)GlcNAc(b1-2)Man(a1-3)[Fuc(a1-2)Gal(b1-3)GlcNAc(b1-2)Man(a1-6)]Man(b1-4)GlcNAc(b1-4)GlcNAc
How it was run: as §1

[7] = target: Fuc(a1-2)Gal(b1-3)GlcNAc(b1-2)Man(a1-3)[Fuc(a1-2)Gal(b1-3)GlcNAc(b1-2)Man(a1-6)]Man(b1-4)GlcNAc(b1-4)[Fuc(a1-6)]GlcNAc
How it was run: as §1

[8] = target: Fuc(a1-2)Gal(b1-3)GlcNAc(b1-3)Gal(b1-4)Glc
How it was run: as §1

[9] = target: Fuc(a1-2)Gal(b1-3)GlcNAc(b1-3)GalNAc
How it was run: as §1

[10] = target: Fuc(a1-2)Gal(b1-3)GlcNAc(b1-3)[Fuc(a1-2)Gal(b1-3)GlcNAc(b1-6)]GalNAc
How it was run: as §1

[11] = target: Fuc(a1-2)Gal(b1-3)GlcNAc(b1-3)[Gal(b1-4)GlcNAc(b1-6)]Gal(b1-4)Glc
How it was run: as §1

[12] = target: Fuc(a1-2)Gal(b1-3)GlcNAc(b1-3)[Neu5Ac(a2-6)Gal(b1-4)GlcNAc(b1-6)]Gal(b1-4)Glc
How it was run: as §1

[13] = target: Fuc(a1-2)Gal(b1-3)GlcNAc6S
How it was run: as §1

[14] = target: Fuc(a1-2)Gal(b1-3)[Fuc(a1-4)]GlcNAc
How it was run: as §1

[15] = target: Fuc(a1-2)Gal(b1-3)[Fuc(a1-4)]GlcNAc(b1-2)Man(a1-3)[Fuc(a1-2)Gal(b1-3)[Fuc(a1-4)]GlcNAc(b1-2)Man(a1-3)]Man(b1-4)GlcNAc(b1-4)GlcNAc
How it was run: as §1

[16] = target: Fuc(a1-2)Gal(b1-3)[Fuc(a1-4)]GlcNAc(b1-2)Man(a1-3)[Fuc(a1-2)Gal(b1-3)[Fuc(a1-4)]GlcNAc(b1-2)Man(a1-6)]Man(b1-4)GlcNAc(b1-4)[Fuc(a1-6)]GlcNAc(b1-4)[Fuc(a1-6)]GlcNAc
How it was run: as §1

[17] = target: Fuc(a1-2)Gal(b1-3)[Fuc(a1-4)]GlcNAc(b1-3)[Fuc(a1-3)[Gal(b1-4)]GlcNAc(b1-6)]Gal(b1-4)Glc
How it was run: as §1

[18] = target: Fuc(a1-2)Gal(b1-3)[Fuc(a1-4)]GlcNAc(b1-3)[Gal(b1-4)GlcNAc(b1-6)]Gal(b1-4)Glc
How it was run: as §1

[19] = target: Fuc(a1-2)Gal(b1-4)Fuc(a1-3)]GlcNAc(b1-2)Man(a1-3)[Fuc(a1-2)Gal(b1-4)[Fuc(a1-3)]GlcNAc(b1-2)Man(a1-6)]Man(b1-4)GlcNAc(b1-4)GlcNAc
How it was run: as §1

Fuc(a1-2)Gal(b1-4)Glc = target: Fuc(a1-2)Gal(b1-4)Glc
How it was run: as §1

Fuc(a1-2)Gal(b1-4)Glc6S = target: Fuc(a1-2)Gal(b1-4)Glc6S
How it was run: as §1

Fuc(a1-2)Gal(b1-4)GlcNAc = target: Fuc(a1-2)Gal(b1-4)GlcNAc
How it was run: as §1

[20] = target: Fuc(a1-2)Gal(b1-4)GlcNAc(b1-2)Man
How it was run: as §1

[21] = target: Fuc(a1-2)Gal(b1-4)GlcNAc(b1-2)Man(a1-3)[Fuc(a1-2)Gal(b1-4)GlcNAc(b1-2)Man(a1-6)]Man(b1-4)GlcNAc(b1-4)GlcNAc
How it was run: as §1

[22] = target: Fuc(a1-2)Gal(b1-4)GlcNAc(b1-2)Man(a1-3)[Fuc(a1-2)Gal(b1-4)GlcNAc(b1-2)Man(a1-6)]Man(b1-4)GlcNAc(b1-4)[Fuc(a1-6)]GlcNAc
How it was run: as §1

[23] = target: Fuc(a1-2)Gal(b1-4)GlcNAc(b1-2)[Fuc(a1-2)Gal(b1-4)GlcNAc(b1-4)]Man(a1-3)[Fuc(a1-2)Gal(b1-4)GlcNAc(b1-2)Man(a1-6)]Man(b1-4)GlcNAc(b1-4)GlcNAc
How it was run: as §1

[24] = target: Fuc(a1-2)Gal(b1-4)GlcNAc(b1-3)Gal(b1-4)GlcNAc
How it was run: as §1

B1: MSMEG3662-2a (Mycobacterium smegmatis), A0QYH7_MYCS2 (protein)
chain: MGDTLTAGQKLERGGSLQSGNGAYTLTLQDDGNLVLYARDKAVWSTGTNGQDVVRAEVQTDGNFVLYTAEKPVWHTDTKGKKEVKLVLQDDRNLVLYAKDGPAWSSKTDTTEPPPPAPEPEKEAEVAPAAAEEAAPAPVAEPAPAEPAPAAPPPAPPAPRTYTVVSGDTLWAIAERFYGDGSKYQQIADASGIANPDLIHPGQVLTIP
glycan array binding signal (z-score) (Fuc(a1-2)Gal): -0.236
glycan array binding signal (z-score) (Fuc(a1-2)Gal(b1-3)GalNAc): -0.049
glycan array binding signal (z-score) [1]: -0.104
glycan array binding signal (z-score) [2]: -0.109
glycan array binding signal (z-score) [3]: -0.15
glycan array binding signal (z-score) [4]: -0.09
glycan array binding signal (z-score) [5]: -0.163
glycan array binding signal (z-score) (Fuc(a1-2)Gal(b1-3)GlcNAc): -0.14
glycan array binding signal (z-score) [6]: -0.018
glycan array binding signal (z-score) [7]: -0.05
glycan array binding signal (z-score) [8]: -0.106
glycan array binding signal (z-score) [9]: -0.084
glycan array binding signal (z-score) [10]: -0.089
glycan array binding signal (z-score) [11]: 0.013
glycan array binding signal (z-score) [12]: -0.147
glycan array binding signal (z-score) [13]: 0.12
glycan array binding signal (z-score) [14]: -0.103
glycan array binding signal (z-score) [15]: 0.02
glycan array binding signal (z-score) [16]: 0.122
glycan array binding signal (z-score) [17]: 0.09
glycan array binding signal (z-score) [18]: -0.006
glycan array binding signal (z-score) [19]: 0.182
glycan array binding signal (z-score) (Fuc(a1-2)Gal(b1-4)Glc): 0
glycan array binding signal (z-score) (Fuc(a1-2)Gal(b1-4)Glc6S): -0.153
glycan array binding signal (z-score) (Fuc(a1-2)Gal(b1-4)GlcNAc): -0.065
glycan array binding signal (z-score) [20]: 0.155
glycan array binding signal (z-score) [21]: -0.14
glycan array binding signal (z-score) [22]: 0.018
glycan array binding signal (z-score) [23]: -0.079
glycan array binding signal (z-score) [24]: -0.14
